Laboratory results from PubChem BioAssay AID686979 (National Center for Advancing Translational Sciences (NCATS), 2013).
Screen size: about 420,000 compounds; about 50,000 (12%) were called active. Inconclusive means that the source gave no clear call. Such entries were picked first, then a sample of the others. The call rests on the fitted dose curve; in most records, active means well fitted inhibition curve with a large enough effect; inconclusive means small, poorly fitted or top-dose-only effect; inactive means flat fitted curve, though single readings scatter. No potency is given beside an inconclusive call; the fits are too rough.

Assay: qHTS for Inhibitors of human tyrosyl-DNA phosphodiesterase 1 (TDP1): qHTS in cells in presence of CPT; further: nearly all actives have a fitted effect of over 55% in size
Settings: chicken DT40 Tdp1-/-;hTDP1 cells + 20 nM CPT, ATP luminescence, 48 h; activity change, negative = growth inhibition: at 46.2 µM (top of the series) unless noted
How it was run: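 Chicken DT40 Tdp1-/- cells complemented with human TDP1, 400 cells/well, exposed to compounds plus 20 nM camptothecin for at least 48 h at 37 C; viability read as ATP content by CellTiter-Glo luminescence.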
On the % scale 0 is the no-effect control and ±100 the full control effect; potency means the concentration at half of the fitted maximal effect; tags describe the fitted curve by direction and shape.

| Compound | activity change, negative = growth inhibition | Potency |
| --- | --- | --- |
| COc1ccc(CN2CCNC(=O)C2CC(=O)N(C)Cc2ccno2)c(F)c1 (configuration not stated) | inactive: -4.2% | – |
| COc1cc(OC)c2ccc(=O)oc2c1 | – | inactive |
| O=C(/C=C/c1ccccc1)c1ccoc1 | – | inconclusive [inhibitor, single point] |
| O=S(=O)(Nc1ccc(N2CCCCC2)cc1)c1cccc2cccnc12 | – | inconclusive [inhibitor, single point] |
| O=C(NCc1cc(Cl)cc(Cl)c1)c1ccc2sc([C@@H]3O[C@H](CO)[C@H](O)[C@H](O)[C@H]3O)nc2c1 | inactive: -1.5% | – |
| O=C(NC1CC1)c1ccc(-c2ccccc2)cc1 | – | inconclusive [inhibitor, single point] |
| O=S1(=O)C[C@H](N2CCCC2)[C@@H](COCc2ccccc2)N1 | inactive: 0.14% | – |
| Cc1cc(C)n(CC(=O)Nc2ccc(N3CCOCC3)c(Cl)c2)c(=O)c1C#N | inactive: 2.5% | – |
| CC(=O)Nc1ccc2cc3ccc(NC(C)=O)cc3nc2c1 | – | inconclusive [inhibitor, single point] |
| O=C(NCc1ccc2c(c1)OCO2)c1ccc(-c2ccc(Cl)cc2)o1 | inactive: 3.15% | – |
| CCSC1=C(C#N)C(c2ccccc2OC)CC(=O)N1 (configuration not stated) | – | inconclusive [inhibitor, single point] |
| C=CCn1c(C)cc(C(=O)COC(=O)c2cncc(Br)c2)c1C | – | active: 18.4 µM |
| Cc1ccc(S(=O)(=O)Nc2nc3n(n2)C(c2ccc(Cl)cc2)C=C(c2ccccc2)N3)cc1 (configuration not stated) | – | inconclusive [inhibitor, single point] |
| COc1ccc(S(=O)(=O)N(C)CC(=O)Nc2ccc(C)cc2)cc1OC | – | active: 23.1 µM |
| CCN(CC)C(=N)/C(C#N)=N/Nc1ccc(C)cc1 | inactive: 10.3% | – |
| COCCN(CC(=O)Nc1cccc(C)c1C)C(=O)Cn1cnc2ccccc2c1=O | inactive: 3.79% | – |
| CC(C)c1cc(C(=O)NC2CCCCCC2)c2ccccc2n1 | – | inconclusive [inhibitor, single point] |
| CCOC(=O)[C@]12CCCC=C1N(Cc1cccc3ccccc13)C(=O)[C@H](CC(=O)N1CCCCC1)C2 | – | active: 18.4 µM |
| CCCn1c2ccc(C)cc2c2nnc(SCCN3CCCCC3)nc21 | – | active: 18.4 µM |
| CC(C)n1ncc2c(C(=O)Nc3ccccc3SCC(N)=O)cc(C3CC3)nc21 | – | inconclusive [inhibitor, single point] |
| COc1ccc(CCNC(=O)c2cc(-c3ccc(C)c(C)c3)nc3ccccc23)cc1OC | – | active: 10.3 µM |
| N#CCCN(C(=O)COC(=O)C1CCN(S(=O)(=O)c2cccs2)CC1)c1ccccc1 | inactive: 2.02% | – |
| CC1=C(C(=O)OC2CCCCCC2)C(c2c(Cl)cccc2Cl)CC(=O)N1 (configuration not stated) | – | inconclusive [inhibitor, single point] |
| Cc1cccc2sc(N(CCN(C)C)C(=O)c3ccc4ccccc4c3)nc12 | – | inconclusive [inhibitor, single point] |

| Compound | activity change, negative = growth inhibition | Potency |
| --- | --- | --- |
| Cc1cc(C)cc(NC(=O)CCn2c(=S)[nH]c3ccccc3c2=O)c1 | inactive: -27.3% | – |
| CN(C(=O)c1cccc(NC(=O)Cc2ccc(NC(=O)C3CCCN(S(=O)(=O)c4cccc([N+](=O)[O-])c4)C3)cc2)c1)C1CCC1 (configuration not stated) | – | inconclusive [inhibitor, single point] |
| COc1ccc(CNC(=O)c2sccc2-c2ccccc2)cc1OC | – | inconclusive [inhibitor, single point] |
| COc1ccc(C(=O)NCC(c2cccs2)S(=O)(=O)c2cccs2)cc1 (configuration not stated) | – | inconclusive [inhibitor, single point] |
| CCOc1ccc(C2CC(=O)c3c([nH]c(C(=O)OC4CCCCCC4)c3C)C2)cc1 (configuration not stated) | – | inconclusive [inhibitor, partial curve] |
| COc1ccc(-c2nnc(SCC(=O)NNC(=O)Cc3ccccc3)n2C)cc1OC | – | inconclusive [inhibitor, single point] |
| Cc1cc(/C=N/NC(=O)C(=O)N2CCCC2)c(C)n1-c1cccc(Br)c1 | – | inconclusive [inhibitor, single point] |
| CCCC(c1nnnn1CCOC)N1CCN(c2nc3ccccc3s2)CC1 (configuration not stated) | – | inconclusive [inhibitor, single point] |
| Cc1cc(C)cc(C(=O)NCC(=O)OCC(=O)N(C)c2ccccc2)c1 | – | inconclusive [inhibitor, partial curve] |
| C#CCSc1nnc(-c2ccccc2)c(=O)[nH]1 | inactive: -8.92% | – |
| Cc1ccc(C)c2[nH]c(=O)c(CN(CC3CCCO3)S(=O)(=O)c3ccc4c(c3)OCCO4)cc12 (configuration not stated) | – | inconclusive [inhibitor, single point] |
| CC(C)C(C(=O)NC1CCCCC1)N(CC1CCCO1)C(=O)CNS(=O)(=O)c1ccc(F)cc1 (configuration not stated) | – | inconclusive [inhibitor, single point] |
| CCOCCc1nn2c(=O)cc(COC(=O)c3ccc4c(c3)OCO4)nc2s1 | – | inconclusive [inhibitor, single point] |
| CC(=O)N(C1=C(O)c2ccccc2C(=O)C1=O)C1CCCCC1 | inconclusive: -32.6% [inhibitor] | – |
| O=C(Nc1ccc(Cl)cc1)c1cnc(-c2ccccc2)nc1-c1ccccc1 | – | inconclusive [inhibitor, single point] |
| O=C(Nc1ccc(-n2ccnc2P(=O)(O)c2ccccc2)cc1)c1ccccc1Br | – | inconclusive [inhibitor, single point] |
| CN(C)S(=O)(=O)c1ccc(Cl)c(NC(=O)CSc2nc3c(cc2C#N)C(=O)CC(C)(C)C3)c1 | – | inconclusive [inhibitor, single point] |
| COC(=O)COc1coc(CN2CCN(c3cccc(Cl)c3)CC2)cc1=O | inactive: -6.02% | – |
| COc1cc(/C=N\NC(=O)CC#N)ccc1OC/C=C/c1ccccc1 | – | active: 25.9 µM |
| Cc1ccc(NC(=O)CN(C)C(=O)c2ccc(Cl)nc2)cc1 | inactive: -5.88% | – |
| CCN(CC(=O)Nc1c(F)cccc1F)C(=O)c1ccc(C)c(S(=O)(=O)N2CCCCC2)c1 | inactive: -26.2% | – |
| Cc1ccc(-n2nnnc2CNC(=O)c2ccc([N+](=O)[O-])o2)cc1C | – | active: 13 µM |
| Cc1ccccc1NC(=O)CSc1nnc(Cc2cccn2C)n1-c1ccc(F)cc1 | – | inconclusive [inhibitor, single point] |
| CN(C(=O)c1ccc(Cl)cc1)c1ccc(OCC(=O)Nc2cc(C(=O)O)ccc2Cl)cc1 | inactive: -1.13% | – |

| Compound | activity change, negative = growth inhibition | Potency |
| --- | --- | --- |
| O=[N+]([O-])c1ccc(OCCN2CCNCC2)cc1 | inactive: -21.5% | – |
| N#Cc1ccc(C2N=C(c3ccccc3)NO2)cc1 (configuration not stated) | – | inconclusive [inhibitor, single point] |
| COc1cc(/C=C2\SC(N)=NC2=O)ccc1OCC(=O)Nc1ccc(C)cc1 | – | active: 1.46 µM |
| COc1ccccc1C1CC(=O)Oc2cc(C)c(Cl)cc21 (configuration not stated) | – | inconclusive [inhibitor, full curve] |
| COc1cc(=O)n2c(c1C(=O)NCc1cccc(F)c1)CCN(Cc1cccnc1)CC2 | inactive: -5.47% | – |
| COc1ccccc1CC(=O)OCC(=O)N1CCN(c2ccc(F)cc2)CC1 | – | inconclusive [inhibitor, single point] |
| O=S(=O)(c1ccc(Br)cc1)N1CCn2cccc2C1c1ccc(Br)cc1 (configuration not stated) | – | inconclusive [inhibitor, single point] |
| O=C(CN1CCCc2ccccc21)N/N=C/c1ccccc1 | – | inconclusive [inhibitor, single point] |
| COCCn1c(CN2CC(C)CC(C)C2)nc2c1c(=O)n(C)c(=O)n2C (configuration not stated) | inactive: -8.87% | – |
| COc1ccc(Cl)cc1NC(=O)CN(C1CCCCC1)S(C)(=O)=O | – | inconclusive [inhibitor, partial curve] |
| Cc1nn(-c2ccccc2)nc1-c1nnc(-c2ccc(C(F)(F)F)cc2)o1 | inactive: 28% | – |
| CCN(CC)S(=O)(=O)c1ccc(C(=O)Nc2nnc(-c3ccco3)o2)cc1 | – | inconclusive [inhibitor, single point] |
| Cn1c(Cn2c(=O)sc3ccccc32)nnc1SCc1ccc(F)cc1 | – | inconclusive [inhibitor, single point] |
| CN(C(=O)c1cccc(NC(=O)Cc2cccc([N+](=O)[O-])c2)c1)C1CCCC1 | – | active: 18.4 µM |
| COc1ccc(C(=O)Cn2c(C)nc([N+](=O)[O-])c2Br)cc1 | – | active: 7.31 µM |
| Cc1ccc(-c2cn3c(n2)sc2cc(C(=O)NC4CCCCCC4)ccc23)c(C)c1 | – | inconclusive [inhibitor, partial curve] |
| Cc1ccc(S(=O)(=O)N(C)CC(=O)N(C)CCOc2ccccc2)cc1 | – | inconclusive [inhibitor, single point] |
| FC(F)Oc1ccccc1/C=N/Nc1nc2ccccc2o1 | – | inconclusive [inhibitor, single point] |
| Cc1ccc(C)c(N2CCN(CCCNC(=O)c3ccc4nc(C(C)C)oc4c3)CC2)c1 | – | active: 7.31 µM |
| COc1cccc(-c2cn3c(n2)sc2cc(C(=O)NCCc4ccccc4)ccc23)c1 | – | active: 7.31 µM |
| CCCc1ccc2oc(C(=O)N(C)Cc3cnccn3)c(C)c2c1 | – | inconclusive [inhibitor, single point] |
| CCOCCc1nnc(NC(=O)CSc2ccccc2)s1 | – | inconclusive [inhibitor, single point] |
| COC(=O)/C=C1\N/C(=N\c2nc(C)cc(C)n2)N(c2ccc(C)c(C)c2)C1=O | inactive: 2.36% | – |
| CCc1ccccc1NC(=O)CSc1nc2ccccc2nc1Cc1cccc(OC)c1 | – | inconclusive [inhibitor, single point] |
